Some of the results follow. Most values come without repeats; read them as rough.
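Further: cells treated in 1,536-well plates, then fixed and DAPI-stained, with nuclei counted from automated high-throughput microscope images.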

This test deals with UACC62. Kind of test: cell count relative to DMSO control; melanoma cells; higher = more viable cells. The following applies: library dose: standard library concentration; 72 h.
`N#CC[C@H](C1CCCC1)n1cc(-c2ncnc3[nH]ccc23)cn1` [ruxolitinib] + Cn1c(Nc2ccc(C(F)(F)F)cc2)nc2cc(Oc3ccnc(-c4ncc(C(F)(F)F)[nH]4)c3)ccc21 [CHIR265] (first compound 5 µM, partner dose 0.4 µM): the cell count was found to be 49.7%. The value for `CC[C@]1(O)C[C@H]2CN(CCc3c([nH]c4ccccc34)[C@@](C(=O)OC)(c3cc4c(cc3OC)N(C=O)[C@H]3[C@@](O)(C(=O)OC)[C@H](OC(C)=O)[C@]5(CC)C=CCN6CC[C@]43[C@@H]65)C2)C1` [vincristine] + Cc1ccc(NC(=O)c2cccc(N(C)C)c2)cc1NC(=O)c1ccc(O)cc1 [ZM336372] (first compound 0.0005 µM, partner dose 10 µM) was 67.1%. As for `N#CC[C@H](C1CCCC1)n1cc(-c2ncnc3[nH]ccc23)cn1` [ruxolitinib] + Cc1ccc(NC(=O)c2cccc(N(C)C)c2)cc1NC(=O)c1ccc(O)cc1 [ZM336372] (first compound 5 µM, partner dose 10 µM), the figure is 115%; as for `Cc1cc(Nc2cc(N3CCN(C)CC3)nc(Sc3ccc(NC(=O)C4CC4)cc3)n2)n[nH]1` [Tozasertib] + CO[C@@H]1[C@H](N(C)C(=O)c2ccccc2)C[C@H]2O[C@]1(C)n1c3ccccc3c3c4c(c5c6ccccc6n2c5c31)C(=O)NC4 [Midostaurin] (first compound 0.03 µM, partner dose 0.4 µM), 66.3%; as for `N#CC[C@H](C1CCCC1)n1cc(-c2ncnc3[nH]ccc23)cn1` [ruxolitinib] + COc1cc(Nc2ncc(F)c(Nc3ccc4c(n3)NC(=O)C(C)(C)O4)n2)cc(OC)c1OC [Tamatinib] (first compound 5 µM, partner dose 2 µM), 72%. Compound `Cc1cc(Nc2cc(N3CCN(C)CC3)nc(Sc3ccc(NC(=O)C4CC4)cc3)n2)n[nH]1` [Tozasertib] + O=C(O)c1ccc(-c2c[nH]c3ncc(-c4ccccc4)cc23)cc1C1CCCC1 [GSK650394] (first compound 0.03 µM, partner dose 0.8 µM) came in with a cell count of 75.4%. Regarding `Cc1cc(Nc2cc(N3CCN(C)CC3)nc(Sc3ccc(NC(=O)C4CC4)cc3)n2)n[nH]1` [Tozasertib] + COc1cc(Nc2ncc(F)c(Nc3ccc4c(n3)NC(=O)C(C)(C)O4)n2)cc(OC)c1OC [Tamatinib] (first compound 0.03 µM, partner dose 2 µM), the cell count amounted to 85.1%. `Cc1cc(Nc2cc(N3CCN(C)CC3)nc(Sc3ccc(NC(=O)C4CC4)cc3)n2)n[nH]1` [Tozasertib] + Cn1cncc1[C@@](N)(c1ccc(Cl)cc1)c1ccc2c(c1)c(-c1cccc(Cl)c1)cc(=O)n2C [tipifarnib] (first compound 0.03 µM, partner dose 0.05 µM) showed a cell count of 68.2%. `CC[C@]1(O)C[C@H]2CN(CCc3c([nH]c4ccccc34)[C@@](C(=O)OC)(c3cc4c(cc3OC)N(C=O)[C@H]3[C@@](O)(C(=O)OC)[C@H](OC(C)=O)[C@]5(CC)C=CCN6CC[C@]43[C@@H]65)C2)C1` [vincristine] + NC(=O)Nc1cc(-c2cccc(F)c2)sc1C(=O)N[C@H]1CCCNC1 [AZD7762] (first compound 0.0005 µM, partner dose 0.1 µM) yielded a cell count of 57.1%. For the compound `Cc1cc(Nc2cc(N3CCN(C)CC3)nc(Sc3ccc(NC(=O)C4CC4)cc3)n2)n[nH]1` [Tozasertib] + CN(C)S(=O)(=O)c1ccc2c(c1)/C(=C/c1cc3c([nH]1)CCCC3)C(=O)N2 [SU6656] (first compound 0.03 µM, partner dose 2 µM), the cell count came out at 78.7%. As for `N#CC[C@H](C1CCCC1)n1cc(-c2ncnc3[nH]ccc23)cn1` [ruxolitinib] + COc1cc2c(Oc3ccc4[nH]c(C)cc4c3F)ncnc2cc1OCCCN1CCCC1 [cediranib] (first compound 5 µM, partner dose 2 µM), the cell count is 83.4%. In turn, `CC[C@]1(O)C[C@H]2CN(CCc3c([nH]c4ccccc34)[C@@](C(=O)OC)(c3cc4c(cc3OC)N(C=O)[C@H]3[C@@](O)(C(=O)OC)[C@H](OC(C)=O)[C@]5(CC)C=CCN6CC[C@]43[C@@H]65)C2)C1` [vincristine] + COc1cc2c(Oc3ccc4[nH]c(C)cc4c3F)ncnc2cc1OCCCN1CCCC1 [cediranib] (first compound 0.0005 µM, partner dose 2 µM) registered a cell count of 57.4%. Compound `CC[C@]1(O)C[C@H]2CN(CCc3c([nH]c4ccccc34)[C@@](C(=O)OC)(c3cc4c(cc3OC)N(C=O)[C@H]3[C@@](O)(C(=O)OC)[C@H](OC(C)=O)[C@]5(CC)C=CCN6CC[C@]43[C@@H]65)C2)C1` [vincristine] + O=C(Nc1cccc(Cl)c1)Nc1ncc(CCNc2ncnc3ccsc23)s1 [SNS314] (first compound 0.0005 µM, partner dose 0.004 µM) gave a cell count of 66.1%.

(Values after the supplement of paper PMC4604168 (melanoma cell lines).)
